Target: T1, MBP-tagged NONO (human, UniProt Q15233 1-471)
T1 sequence (looked up): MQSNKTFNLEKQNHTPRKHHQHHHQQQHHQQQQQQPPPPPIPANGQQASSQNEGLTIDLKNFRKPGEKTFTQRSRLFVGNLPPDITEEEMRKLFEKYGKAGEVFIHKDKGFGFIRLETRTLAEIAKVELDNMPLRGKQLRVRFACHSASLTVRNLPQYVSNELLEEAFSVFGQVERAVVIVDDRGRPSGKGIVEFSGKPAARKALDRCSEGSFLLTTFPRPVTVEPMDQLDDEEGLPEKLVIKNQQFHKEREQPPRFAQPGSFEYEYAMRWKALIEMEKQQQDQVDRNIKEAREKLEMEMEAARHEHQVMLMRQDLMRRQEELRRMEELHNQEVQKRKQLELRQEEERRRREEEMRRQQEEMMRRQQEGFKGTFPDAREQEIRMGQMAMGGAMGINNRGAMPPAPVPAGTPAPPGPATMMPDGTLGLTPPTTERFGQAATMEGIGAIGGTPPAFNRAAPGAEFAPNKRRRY
Assay: co-IP

- binding result: binds
B1: GST-tagged PARP1 catalytic (CAT) domain ([…]) (domain or fragment)
chain: not shown

Reference: publication PMC11673900 (Journal of Translational Medicine, 2024)
